Article PMC4336329 (PLoS ONE, 2015)
Screen size: about 310,000 compounds; about 14,000 (4.5%) showed an effect of 50% or more. The effect is printed as a negative number. The list shows a part of the results.

Biological target: human ether-à-go-go-related gene (hERG) potassium channel (human, UniProt Q12809)
Test: primary screen, population patch clamp on CHO cells stably expressing hERG
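Further: peak tail current of the secondary pulse compared with the same well before compound.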

Chain of human ether-à-go-go-related gene (hERG) potassium channel (Q12809 whole entry, looked up): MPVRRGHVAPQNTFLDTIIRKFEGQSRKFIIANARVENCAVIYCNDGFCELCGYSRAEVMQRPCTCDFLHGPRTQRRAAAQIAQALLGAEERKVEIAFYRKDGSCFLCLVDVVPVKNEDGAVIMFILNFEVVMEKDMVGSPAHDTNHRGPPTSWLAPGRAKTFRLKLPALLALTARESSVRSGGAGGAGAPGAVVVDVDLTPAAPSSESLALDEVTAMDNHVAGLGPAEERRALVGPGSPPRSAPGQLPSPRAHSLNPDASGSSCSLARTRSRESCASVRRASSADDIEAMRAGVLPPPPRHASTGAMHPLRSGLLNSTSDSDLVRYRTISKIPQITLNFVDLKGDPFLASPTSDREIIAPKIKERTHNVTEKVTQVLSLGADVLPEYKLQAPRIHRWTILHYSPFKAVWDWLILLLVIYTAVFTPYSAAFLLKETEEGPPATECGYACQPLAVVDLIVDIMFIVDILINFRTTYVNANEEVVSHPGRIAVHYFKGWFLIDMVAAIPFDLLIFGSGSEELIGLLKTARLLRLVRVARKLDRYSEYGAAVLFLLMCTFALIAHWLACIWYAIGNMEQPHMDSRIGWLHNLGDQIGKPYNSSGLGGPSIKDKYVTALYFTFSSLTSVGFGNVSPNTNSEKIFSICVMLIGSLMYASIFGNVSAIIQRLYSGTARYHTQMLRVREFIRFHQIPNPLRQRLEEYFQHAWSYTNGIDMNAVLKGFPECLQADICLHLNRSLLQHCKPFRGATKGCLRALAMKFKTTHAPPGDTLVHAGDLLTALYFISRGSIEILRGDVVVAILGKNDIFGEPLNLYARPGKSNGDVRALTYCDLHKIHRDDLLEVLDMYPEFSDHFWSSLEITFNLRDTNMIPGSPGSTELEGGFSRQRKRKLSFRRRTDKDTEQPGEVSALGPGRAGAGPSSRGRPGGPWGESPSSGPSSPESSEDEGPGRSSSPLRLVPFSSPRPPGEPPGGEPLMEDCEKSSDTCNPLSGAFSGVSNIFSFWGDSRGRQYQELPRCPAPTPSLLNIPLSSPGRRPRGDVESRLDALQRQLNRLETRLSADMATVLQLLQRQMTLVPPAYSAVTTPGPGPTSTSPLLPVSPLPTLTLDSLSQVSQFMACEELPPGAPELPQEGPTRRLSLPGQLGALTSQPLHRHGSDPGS

Row | SMILES | hERG current change (%, negative = inhibition) at 10uM [%]
1 | COc1ccccc1C(=O)NC(=O)CSc1nncn1C | 7.11
2 | O=C(CCC1CCCC1)N1CCN(S(=O)(=O)c2ccc(Br)cc2)CC1 | 0.541
3 | CCCc1nc(SCC(=O)N2CCCC2)c2c(=O)n(C)c(=O)n(C)c2n1 | -18.2
4 | CN(Cc1nc(-c2cnccn2)no1)Cc1cccc2ccccc12 | -2.31
5 | COc1ccc(-c2[nH]ncc2/C=N/NC(=O)c2ccc(Br)cc2)c(OC)c1 | -38.7
6 | CCOC(=O)/C=c1\s/c(=C(\C#N)C(=O)OCC)n(-c2ccccc2)c1=O | 9.63
7 | O=C(O)c1ccc(NC(=O)c2cccc(S(=O)(=O)Nc3ccc(C(=O)O)cc3)c2)cc1 | 13.2
8 | COc1ccc(C(=O)Nc2ccccc2C(=O)N/N=C/c2cccc3ccccc23)cc1 | 21.4
9 | COc1cc(/C=C/C(=O)O)cc(S(=O)(=O)NCCO)c1OC | 9.36
10 | COC(=O)c1ccc(NC(=O)CCNS(=O)(=O)c2cccc3nonc23)cc1 | 3.47
11 | O=C1CSC(=S)N1N=C1CCCCCC1 | 6.17
12 | COc1ccc(C2N(C(=O)CN3CCCC3)CCCN2S(=O)(=O)c2ccccc2)cc1 (centres unmarked) | -15.8
13 | O=C(NCCCN1CCOCC1)c1ccc2c(=O)n(Cc3ccccc3)c(=S)[nH]c2c1 | 10.7
14 | O=C(Cn1nc(Cc2cccnc2)c2ccccc2c1=O)N1CCC2(CC1)OCCO2 | -7.93
15 | O=[N+]([O-])c1ccccc1CNc1ccc(F)c(Cl)c1 | -10.8
16 | COCC(COS(N)(=O)=O)Cc1ccccc1 (centres unmarked) | 7.25
17 | CN1CCN(C(=O)CN(Cc2ccccc2)S(C)(=O)=O)CC1 | 25.7
18 | O=C(COc1ccc(Cl)cc1)Nc1cc2c3c(c1)CC(=O)N3CCC2 | -57.1
19 | CSc1ccc(S(=O)(=O)NCC(=O)OCC(=O)N2CC(C)CC(C)C2)cc1[N+](=O)[O-] (centres unmarked) | -22.2
20 | Cc1ccc(C(=O)C(NC(=O)c2ccco2)Nc2sc3c(c2C(N)=O)CCCC3)cc1 (centres unmarked) | -38.4
21 | CCC(Sc1ncccc1C(=O)Oc1cccc([N+](=O)[O-])c1)C(=O)Nc1ccccc1OC (centres unmarked) | 3.56
22 | CC(C)N(Cc1nc(-c2ccccc2)no1)C(=O)c1ccc(Br)o1 | -18.8
23 | CC(C)CNS(=O)(=O)c1cc2c3c(c1)CCC(=O)N3CCC2 | 1.59
